Measured values from article PMC3510490 (Nucleic Acids Research, 2012).

Molecular target: T1, (H3–H4)2 tetramer (Xenopus laevis, UniProt P84233; P62799, H4 E63C, Alexa 488 maleimide on C63 (H4 E63C))
T1 construct: Histone H3, Xenopus laevis; also called H3–H4 tetramer; H3–H4 complex; copies: 2 + 2
Assay: other fluorescence titration; Arp constructs or sub-complex titrated (1 to 5000 nM) into fluorescently labelled histone complexes or nucleosomes kept at 0.5-1 nM, 40 µl in microplates; 20 mM Tris pH 7.5, 150 mM KCl, 5% glycerol, 1 mM TCEP, 0.01% CHAPS, 0.01% octylglucoside; room temperature, 20-30 min; apparent Kd and Hill coefficient from non-linear fit; quadruplicates
Settings: both partners purified

B1: Homo sapiens Arp8 (Δ[…]) (domain or fragment)
chain: not shown
notes: Actin-related protein 8 (Arp8), INO80 complex subunit, human, […], amplified from human macrophage cDNA; Tag cut off with PreScission protease; also called Hs Arp8 (Δ[…]); human Arp8 (Δ[…]); source: E. coli BL21(DE3), purified (Ni-NTA, Q sepharose, tag cleavage, second Ni-NTA, Superdex-200); not shown: His8, N-terminal, cleaved
Kd: 65.1 nM
